Data reported in US5441983A, “Treatment of infection by enveloped virus with calix(N)arene compounds” (Genelabs Incorporated, priority 1992, dated 1995).

System: HSV-1
Experiment: Topical treatment of ocular HSV-1 infection, rabbits
Details: all topical doses
Procedure: In one treatment method, described in Example 18, graded topical doses of compound Y-1 were administered to the corneal regions of rabbits previously infected with HSV-1. Clinical slit lamp biomicroscopy was used to assess disease severity as measured by average epithelial disease involvement (FIG. 33A), conjunctivitis rating (FIG. 33B), iritis rating (FIG. 33C), and stromal disease (FIG. 33D).
Viral titers were recovered from tear film at days 0, 3, 5, and 7 post-inoculation and from epithelial scrapings performed on day 7 post-infection (sacrifice). Viral titers were determined by plaque reduction and multiple regression analysis, as described in Example 10. […]
On day 4 post inoculation (PI), animals were evaluated by slit lamp microscopy. […]
The concentration of Y-1 for the ascending dose tolerance study were based upon the ED90 concentrations determined in the virus yield or CPE assays. […]
Topical therapy with 0-19 μg Y-1 in 50 μl was initiated on day 4 post-inoculation (PI) and continued to day 7 PI. […] The ocular HSV-1 induced disease severity was recorded daily. […]
On day 7 PI (sacrifice), the corneal epithelium was scraped from the eyes and HSV was recovered on HFF cell monolayers. Corneal epithelial co-cultures were evaluated daily by inverted light microscopy. […]

O=S(=O)(O)c1cc2c(O)c(c1)Cc1cc(S(=O)(=O)O)cc(c1O)Cc1cc(S(=O)(=O)O)cc(c1O)Cc1cc(S(=O)(=O)O)cc(c1O)Cc1cc(S(=O)(=O)O)cc(c1O)Cc1cc(S(=O)(=O)O)cc(c1O)Cc1cc(S(=O)(=O)O)cc(c1O)Cc1cc(S(=O)(=O)O)cc(c1O)C2 [Y-1]
viral titer in tear film: a marked reduction of viral titer was observed in all animals
